# Laboratory results: PubChem BioAssay AID488969 (Vanderbilt High Throughput Screening Facility, 2010)
# Over roughly 110,000 compounds, “z-score” has its median near -0.1; the highest 2% begin near 2. The list shows a part of the results. Active and inactive are the calls of the source.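 The calls were made as follows: active = z-score in the third read window above 3 or below -3; inactive = the rest.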
# Biological target: Metabotropic glutamate receptor 8 (Rattus norvegicus) (UniProt P70579)
# Assay: rat mGluR8 modulators via GIRK flux, primary screen, cell-based, thallium flux, HTS (AID 488969)
# Conditions: HEK293 rat mGluR8, GIRK (G protein-gated inwardly rectifying potassium channel) thallium flux, FluoZin2; at 10 µM; stronger effect = higher value; submaximal glutamate (EC20) added with thallium
# UniProt P70579, sequence (P70579 whole entry, looked up): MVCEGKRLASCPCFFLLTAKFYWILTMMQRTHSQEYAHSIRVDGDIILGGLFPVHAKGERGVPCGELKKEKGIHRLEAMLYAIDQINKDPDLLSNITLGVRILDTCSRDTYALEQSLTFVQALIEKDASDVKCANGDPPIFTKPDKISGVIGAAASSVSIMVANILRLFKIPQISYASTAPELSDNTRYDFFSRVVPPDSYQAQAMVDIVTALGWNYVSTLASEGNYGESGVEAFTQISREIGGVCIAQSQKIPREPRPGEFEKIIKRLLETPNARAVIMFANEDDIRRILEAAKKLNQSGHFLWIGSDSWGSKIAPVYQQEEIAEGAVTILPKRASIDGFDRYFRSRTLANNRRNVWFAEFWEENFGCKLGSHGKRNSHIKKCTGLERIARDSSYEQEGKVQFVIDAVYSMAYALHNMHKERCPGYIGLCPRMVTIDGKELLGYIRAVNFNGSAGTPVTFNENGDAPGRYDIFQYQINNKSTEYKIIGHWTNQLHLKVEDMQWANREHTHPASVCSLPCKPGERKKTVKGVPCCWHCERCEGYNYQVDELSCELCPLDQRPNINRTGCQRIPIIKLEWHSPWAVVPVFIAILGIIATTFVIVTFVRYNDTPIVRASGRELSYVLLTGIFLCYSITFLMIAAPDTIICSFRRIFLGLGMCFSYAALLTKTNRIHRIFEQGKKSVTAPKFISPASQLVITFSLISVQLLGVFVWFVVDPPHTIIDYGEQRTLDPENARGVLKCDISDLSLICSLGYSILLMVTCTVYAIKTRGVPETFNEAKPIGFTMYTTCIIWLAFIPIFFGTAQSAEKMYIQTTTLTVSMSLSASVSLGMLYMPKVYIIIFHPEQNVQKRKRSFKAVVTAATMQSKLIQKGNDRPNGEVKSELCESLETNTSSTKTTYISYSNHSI
row,Structure (SMILES),z-score
1,COc1ccc(S(=O)(=O)Cc2ccc(C(=O)N3CCN(c4cccc(C)c4)C(C)C3)o2)cc1 (centres undefined),-0.198
2,Cc1ccc(-n2c(SCC(=O)N3CCOCC3)nnc2-c2cccnc2)cc1C,-1.4
3,Cc1ccc(-c2cc(C(=O)Nc3cnn(C45CC6CC(CC(C6)C4)C5)c3)no2)cc1,-0.401
4,Cc1c(/C=N/NC(=O)CNc2ccccc2)c2ccccn2c1C(=O)c1ccncc1,-0.258
5,COc1cc(NC(=O)Cc2cccs2)cc(OC)c1,-0.0563
6,Fc1c(F)c(F)c(N/N=C/c2c[nH]c3ccccc23)c(F)c1F,0.0396
7,Cc1ccc2c(C(=O)CN3CCCCC3CCO)c(C)[nH]c2c1 (centres undefined),0.306
8,C/C(N)=C(/C#N)C(=O)CSc1nc2ccccc2[nH]1,-0.0988
9,Cc1cccc(NC(=O)COC(=O)Cc2cccc(C(F)(F)F)c2)c1C,-0.291
10,O=C(O)c1cccc2c1C(=O)N(C1CCCCC1)C2,-0.194
11,CS(=O)(=O)Nc1ccc(C2=NN(C(=O)c3ccco3)C(c3ccccc3)C2)cc1 (centres undefined),-0.461
12,Cc1ccc(NC(=O)C2CCCN2C(=O)Oc2ccccc2)cc1 (centres undefined),0.00428
13,COc1ccccc1Cn1c(=S)[nH]c2cc(C(=O)NCCN3CCOCC3)ccc2c1=O,-0.551
14,O=[N+]([O-])c1ccc(N/N=C/c2c[nH]c3ccccc23)c(S(=O)(=O)Nc2ccc(Cl)cc2)c1,-0.16
15,CCc1nn(C)c(-c2n[nH]c(=S)n2N)c1Cl,-0.146
16,Cc1nc2sc(C(c3cccc(F)c3)N3CCOCC3)c(O)n2n1 (centres undefined),-0.156
17,CCC(c1nnnn1Cc1ccccc1)N(Cc1ccco1)Cc1cc2cc(OC)ccc2[nH]c1=O (centres undefined),-0.0441
18,Cc1c(Cl)cccc1NC(=O)CNC(=O)c1ccccc1F,-0.197
19,CC1CCCC(NC(=O)CC2Nc3ccccc3NC2=O)C1C (centres undefined),0.0968
20,Cc1ccc(-c2nc3ccccc3o2)cc1NC(=S)NC(=O)/C=C/c1ccco1,0.0248
21,C=CCc1cccc2cc(C(=O)N3CCN(C(=O)c4ccco4)CC3)c(=O)oc12,-0.404
22,CCCc1nc2ccccc2c(=O)n1/N=C/c1ccc(O)cc1,1.56

row,Structure (SMILES),z-score
1,CC(C)(C)c1ccccc1OCC(=O)NCCC(=O)O,-0.162
2,O=C(CN1C(=O)c2ccccc2S1(=O)=O)Nc1ccc(S(=O)(=O)N2CCCC2)cc1,-0.409
3,O=C(CCN1C(=O)c2ccccc2S1(=O)=O)NCc1ccco1,0.0458
4,Cc1ccccc1-c1nc(-c2ccc(NC(=O)c3ccc4c(c3)OCO4)cc2)no1,-0.00833
5,CCC(=O)N(CCO)Cc1cc2ccc(C)c(C)c2[nH]c1=O,-0.572
6,N#Cc1ccc(Oc2cccnc2)cc1C#N,0.83
7,COc1ccccc1NS(=O)(=O)c1cccc(C(=O)N/N=C(\C)c2ccc3c(c2)OCCO3)c1,-1.51
8,N#C/C(=C\c1cccs1)C(=O)NCC1CCCO1 (centres undefined),-0.192
9,CCN1C(=O)/C(=C\N2CCN(c3cccc(Cl)c3)CC2)SC1=S,-0.186
10,Brc1ccc(-c2cn3nc4c(nc3n2)CCCC4)cc1,0.46
11,COc1ccc(COC(=O)C2=C(C)NC(=O)NC2c2ccc(O)c(OC)c2)cc1 (centres undefined),-0.122
12,C/C(CC(=O)Nc1cc(Cl)ccc1Cl)=N\NC(N)=S,-0.27
13,Cn1c(=O)c(S(=O)(=O)C(C)(C)C)c(O)c2ccccc21,-0.724
14,O=C(NCc1ccc(F)cc1)c1ccccc1OCc1ccccc1,-0.0481
15,CCc1ccc(OCC(=O)Nc2ccc3c(c2)COC3=O)cc1,0.881
16,CCOC(=O)c1cc(NC(=O)c2cnccn2)cc(C(=O)OCC)c1,-0.0722
17,Cc1ccc(CNC(=O)C2(NC(=O)Nc3ccc(C)cc3)CCCCC2)cc1,-0.292
18,O=C(c1cccs1)N1CCN(C(=O)C(c2ccccc2)c2ccccc2)CC1,-0.297
19,COc1ccc2c(c1)C(c1ccc(N3CCOCC3)cc1)=NNC(c1cccnc1)=N2,0.478
20,Cc1nn(CC(=O)NCc2ccccc2Cl)c(C)c1[N+](=O)[O-],-0.117
21,COc1ccccc1OCCn1c(=O)sc2ccccc21,-0.0836
22,CCOC(=O)C1CCCN(C(=O)Cn2nc(CC)n3c(cc4sccc43)c2=O)C1 (centres undefined),-0.393

row,Structure (SMILES),z-score
1,Cc1ccc(S(=O)(=O)NC2CCCC2)cc1C,-0.157
2,COc1ccc(C2=Nn3c(nnc3-c3ccccc3OC)SC2)cc1OC,-1.01
3,CCOC(=O)C1CCCN(S(=O)(=O)Cc2ccccc2)C1 (centres undefined),0.343
4,Cc1ccc(C)c(N2CCN(C(=O)c3csc(C)c3C)CC2)c1,0.0161
5,CC(=O)c1cc2c(cc1NC(=O)CN1CCCCCCC1)OCO2,-0.185
6,COc1ccccc1N1CCN(C(=O)CN(Cc2ccc(Cl)cc2)S(C)(=O)=O)CC1,-0.133
7,CC(C)(C)n1nc2c(c1NC(=O)c1cccc(C(F)(F)F)c1)CS(=O)C2 (centres undefined),0.115
8,CC1CCN(CC(=O)NCc2ccccc2)CC1,-0.0448
9,Cc1cccn2cc(CSc3nnc(Nc4ccc(C(C)C)cc4)s3)nc12,-0.709
10,CC(C)Sc1nc2ccccc2n1CC(=O)NCc1ccc2c(c1)OCO2,-0.586
11,Cc1nn2c(=O)nc3sc4c(c3c2[nH]c1=O)CCCC4,-1.6
12,O=C(CN1C(=O)NC2(CCCc3ccccc32)C1=O)NCc1ccco1 (centres undefined),-0.227
13,O=c1cc(CN2CCN(CCO)CC2)c2cc3c(cc2o1)CCC3,0.804
14,Cc1cc(Br)ccc1NC(=S)Nc1cccc([N+](=O)[O-])c1,0.848
15,O=C(NN1C(=O)c2ccccc2NC1c1ccccn1)c1ccccc1 (centres undefined),-0.346
16,CC(C)(C)OC(=O)NCCCCCc1nnc(SCC(N)=O)o1,1.62
17,Cn1c(C(=O)N2CCCC2)cc2c(=O)n(C)c3ccccc3c21,-0.844
18,O=C1C(O)CC2c3ccccc3CC3(CCCC3)N12 (centres undefined),-0.202
19,COc1ccc(-c2noc(CCC(=O)NCCCN3CCC(C)CC3)n2)cc1,-0.0947
20,Cc1ccc(C)c(CN2C(=O)C3CCCN3c3ccc(S(=O)(=O)N4CCOCC4)cc32)c1 (centres undefined),-0.48
21,O=C(N/N=C/c1ccc([N+](=O)[O-])cc1)c1ccc2nc[nH]c2c1,-0.162
22,COc1ccc(C(=O)OCC2CC(c3ccccc3)N(C)O2)cc1 (centres undefined),0.13

row,Structure (SMILES),z-score
1,Cc1ccc2c(c1)/C(=N/OS(=O)(=O)c1ccccc1)CCS2,-0.0781
2,CC(=O)Oc1ccc(C(=O)[C@H]2[C@H]3C(=O)N(c4ccccc4)C(=O)[C@H]3[C@@H]3C=CC=NN32)cc1,-1.36
3,COc1ccc(/C=N/NC(=O)C(Cc2c[nH]c3ccccc23)NC(=O)OCC(C)C)cc1[N+](=O)[O-] (centres undefined),-0.0825
4,CC(O)[C@H](NC(=O)C1(c2ccccc2)CCN(C(=O)OC(C)(C)C)CC1)C(=O)O (some centres undefined),-0.163
5,O=c1[nH]c(-c2ccncc2)nc2ccccc12,0.441
6,Cc1cccc(-n2c(C)cc(C(=O)NC3CCCCC3)c2C)c1,-0.484
7,COc1ccccc1N1C(=O)C2CC(C)=C(C)CC2C1=O (centres undefined),-1.37
8,O=C(O)C1CCCN1S(=O)(=O)c1ccccc1 (centres undefined),0.165
9,Cc1cccc(Nc2nc(N)nc(CC(=O)CSc3ccc(Cl)cc3)n2)c1,0.0332
10,CCOc1ccccc1NC(=O)c1cccc2c1C(=O)N(CCOC)C2,-0.0529
11,COc1cccc(-n2nnc3c(=O)n(Cc4ccccc4Cl)cnc32)c1,0.295
12,CCOC(=O)C(Cc1ccccc1)C(=O)Nc1cccc2ccccc12 (centres undefined),-0.627
13,O=C1NC(c2cccc(Br)c2)=N/C1=C\c1ccco1,-0.0235
14,CCOC(=O)c1cc2c(=O)n3ccccc3nc2n(CC(C)C)c1=NC(=O)c1c(-c2c(F)cccc2Cl)noc1C,-0.0956
15,Clc1ccc(C2=Nn3c(nnc3-c3cccnc3)SC2)s1,-0.878
16,CC(C)C(=O)Nc1nc2cc3c(cc2s1)OCO3,0.0741
17,COc1cccc2sc(NC(=O)c3ccc(Br)s3)nc12,0.601
18,Cc1nn2c(c1-c1ccc(Cl)cc1)N=C(c1ccco1)CC2c1ccccc1 (centres undefined),-0.204
19,CCOC(=O)c1ccccc1OCc1cc(/C=N/n2cnnc2)ccc1OC,1.25
20,Cc1ccccc1-c1nnc2c3ccccc3c(C)nn12,-2.4
21,CSc1ccc(C(=S)N2CCN(C(c3ccccc3)c3ccccc3)CC2)cc1,-0.121
22,CN1C2C=C3C(C#N)=C(N)C(C#N)(C#N)[C@@H](c4ccsc4)[C@@H]3C1CC2 (some centres undefined),active: 4.01

row,Structure (SMILES),z-score
1,O=C1CC(C(=O)N2CCOCC2)C2(CCCC2)O1 (centres undefined),-0.46
2,CCOC(=O)c1c(C2CC2)csc1NC(=O)COC(=O)c1cnc(Cl)c(Cl)c1,-0.208
3,CNC(=O)CC(C(=O)O)c1ccc(OCC(C)C)cc1 (centres undefined),1.1
4,CCc1ccc(C(=O)c2cncc(Br)c2)cc1,-0.261
5,CC1=C(C#N)C(c2cn(-c3ccccc3)nc2-c2cccs2)C(C#N)=C(C)N1,-0.831
6,Cc1ccc(C(C(=O)NC2CCCC2)N2CCCC(C)C2)cc1 (centres undefined),-1.63
7,COc1cc2c(cc1OC)CN(C(=O)C(C)(C)C)CC2,-0.104
8,Nc1ccc(-n2nnnc2CN2CCOCC2)cc1,-0.215
9,CCCC(=O)NC(NC(=S)Nc1ccc(S(N)(=O)=O)cc1)C(Cl)(Cl)Cl (centres undefined),-0.285
10,CC(C)OC(=O)c1ccc(COC(=O)c2cccc(-c3nnc(-c4ccccc4)o3)c2)cc1,-0.101
11,COc1ccc(/C=C/C(=O)OCC(=O)Nc2ccc(OC)c(S(=O)(=O)N3CCCCC3)c2)cc1,-0.323
12,COc1ccc(CCC(C)Nc2cccc(F)c2)cc1 (centres undefined),-0.259
13,Cc1cc(Cl)c(OCCOCCN2CCC(C)CC2)c(Br)c1,0.348
14,CC(C)CCn1c(CN2CCN(C(=O)c3ccco3)CC2)nc2c1c(=O)n(C)c(=O)n2C,0.0621
15,COc1ccc(NC(=O)CSc2ncccc2C(=O)OC(C)C)cc1OC,-0.26
16,C=CCOC(=O)C1=C(C)N=C2SCCC(=O)N2C1c1cccs1 (centres undefined),-0.795
17,CCOC(=O)CSc1nc2ccccc2c(=O)n1C1CCCC1,0.684
18,CN1/C(=C/C=N/n2cnnc2)C(C)(C)c2ccccc21,-0.518
19,CN(C)S(=O)(=O)c1ccc2[nH]cc(/C=C/c3nc4ccccc4c(=O)n3-c3ccccc3)c2c1,-0.677
20,Cc1ccc(CCNC(=O)NC(C)(C)C)cc1,-0.427
21,COc1c2occc2cc2ccc(=O)oc12,-0.548
